In PubChem BioAssay AID904 (National Center for Advancing Translational Sciences (NCATS), 2007):
About 530 (0.96%) of roughly 55,000 compounds were called active. Inconclusive means that the source gave no clear call. Such entries were picked first, then a sample of the others. Calls come from the whole dose curve; as a rule, active = well fitted cell-killing curve with a large enough effect; inconclusive = small, poorly fitted or top-dose-only effect; inactive = no such curve, though single readings can be large or run the other way. A potency beside an inconclusive call is a rough fit, not a confirmed value.
Potency is the fitted concentration of half-maximal effect; tags give direction and shape of the fitted curve.

Test: qHTS Screen for Compounds that Selectively Target Cancer Cells with p53 Mutations: Cytotoxicity of p53 Null Cells at the Nonpermissive Temperature; note: nearly all actives have a fitted effect of over 50% in size
Settings: H1299 p53-null (neo) cells, 39C, ATPlite viability, 24 h; series mostly up to 46.1 µM
Method in brief: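 Following overnight plating at 37C (600 cells/well), H1299-neo or H1299-p53A138V cells are dosed up to 46 uM. Incubation lasts 24 hr at 39C before ATP detection.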
With CCc1nnc(NC(=O)c2nc(SCc3ccccc3F)ncc2Cl)s1 the Potency was “inactive”.
With COc1ccc(Cl)cc1C(=O)NCc1cnn(C)c1C the Potency was “inactive”.
In the case of COc1ccc(NC(=O)C2CCCN(c3nnc(C)c4c(C)n(-c5ccccc5)nc34)C2)cc1Cl (stereo not drawn), the Potency is reported as inconclusive: 10 µM [cytotoxic, partial curve].
With COCCOC(=O)c1c(-c2ccccc2)c(-c2ccccc2)nn(C)c1=O the Potency was inconclusive: 3.16 µM [cytotoxic, single point].
In the case of Cc1ccc(/C=C(\C#N)c2nc3ccccc3c(=O)[nH]2)cc1, the Potency is reported as inconclusive: 0.0316 µM [cytotoxic, full curve].
In the case of Cc1nc2ccn(Cc3ccco3)c(=O)c2cc1C(=O)N1CCN(c2ccc(F)cc2)CC1, the Potency is reported as inconclusive: 31.6 µM [cytotoxic, single point].
In the case of COc1ccc(NC(=O)N2CCN(S(=O)(=O)c3ccc4c(ccn4C)c3)CC2)c(OC)c1, the Potency is reported as inconclusive: 0.178 µM [cytotoxic, full curve].
With CCOc1ccc(-c2nnc(SCC(=O)Nc3cc(C)ccc3OC)o2)cc1 the Potency was inconclusive: 22.4 µM [cytotoxic, partial curve, poor fit].
In the case of Cc1cccc(-c2nnc(SCC(=O)N3CCCCC3)o2)c1, the Potency is reported as inconclusive: 31.6 µM [cytotoxic, single point].
With CCn1c(=O)n(CC)c2cc(N3CCCC3)c(NC(=O)Nc3cc(C)cc(C)c3)cc21 the Potency was inconclusive: 3.98 µM [cytotoxic, partial curve].
In the case of CCN(Cc1ccccc1)C(=O)Cn1c(=O)n(-c2cccc(C)c2)c(=O)c2c1c1cc(OC)ccc1n2C, the Potency is reported as “inactive”.
With COc1cc(NS(=O)(=O)c2cc(Br)cc3c2N(C(=O)C2CC2)CC3)cc(OC)c1 the Potency was inconclusive: 20 µM [cytotoxic, single point].
In the case of O=C(NCCC1=CCCCC1)c1ccc2c(c1)N(Cc1ccccc1)C(=O)c1ccccc1S2=O (stereo not drawn), the Potency is reported as “inactive”.
For CN(C)c1ccc(C(CNS(=O)(=O)c2ccc(F)cc2F)N2CCOCC2)cc1 (stereo not drawn), the Potency was “inactive”.
For CCc1nn(CC(=O)NCCOC)c(=O)c2cc3cc(F)ccc3n12, the Potency was inconclusive: 10 µM [cytotoxic, partial curve, poor fit].
For O=C(Nc1cccc(C(F)(F)F)c1)Nc1ccc2snnc2c1, the Potency was inconclusive: 12.6 µM [cytotoxic, partial curve, poor fit].
With Cc1c(Cl)cccc1-c1ccc(/C=C(\C#N)c2nc3ccccc3[nH]2)o1 the Potency was active: 10 µM.
With CCCNC(=O)N1CCCN(S(=O)(=O)c2ccc3c(ccn3CC)c2)CC1 the Potency was inconclusive: 0.112 µM [cytotoxic, full curve, poor fit].
For CCCS(=O)(=O)Nc1cc(-c2cn3ccc(C)cc3n2)ccc1C, the Potency was inconclusive: 31.6 µM [cytotoxic, single point].
In the case of CSc1ccc(CCNC(=O)c2ccc(CS(=O)Cc3ccc(Cl)cc3)o2)cc1 (stereo not drawn), the Potency is reported as inconclusive: 1.26 µM [cytotoxic, partial curve].
For COc1ccc(CCNC(=O)CCCn2nc(C)c3sc4ccccc4c3c2=O)cc1OC, the Potency was inconclusive: 11.2 µM [cytotoxic, partial curve].
For Cc1nn(-c2ccccc2)c2sc(C(=O)Nc3cccc(O)c3)cc12, the Potency was active: 25.1 µM.
For O=C(Nc1cc(Cl)cc(Cl)c1)c1ccc(F)c(S(=O)(=O)NCc2ccccc2Cl)c1, the Potency was “inactive”.
In the case of COc1cc(OC)c(NC(=O)c2c3c(nn2C)-c2ccccc2SC3)cc1Cl, the Potency is reported as inconclusive: 31.6 µM [cytotoxic, single point].
For COc1ccccc1Nc1c2c(nc3ccc(NC(=O)c4cccc(F)c4)cc13)CCCC2, the Potency was active: 10 µM.
For Cc1ccc(-c2csc(NC(=O)c3cccc(N4C(=O)CCC4=O)c3)n2)o1, the Potency was inconclusive: 8.91 µM [cytotoxic, partial curve].
In the case of Cc1ccc(Cl)cc1NC(=O)CSc1nc(C)c(C)c(C)c1C#N, the Potency is reported as “inactive”.
In the case of O=C(Nc1ccc2nc(SCC(=O)N3CCCC3)sc2c1)c1ccccc1F, the Potency is reported as inconclusive: 6.31 µM [cytotoxic, partial curve].
In the case of Cc1cccc(-c2nc(Cn3c(SCc4cccc(C(F)(F)F)c4)nc4ccncc43)c(C)o2)c1, the Potency is reported as inconclusive: 7.94 µM [cytotoxic, partial curve].
With CCOC(=O)c1ccc(NC(=O)Cn2cc(C(=O)c3ccc(Cl)cc3)c(=O)c3ccc(C)nc32)cc1 the Potency was “inactive”.
For c1ccc(Cn2ncc3c(N4CCOCC4)ncnc32)cc1, the Potency was “inactive”.
With CCCS(=O)(=O)Nc1cc2c(cc1NCc1ccccc1)n(C)c(=O)n2C the Potency was inconclusive: 12.6 µM [cytotoxic, partial curve, poor fit].
For Cc1cc(C)c(Cn2c(C(O)c3ccccc3)nc3ccccc32)c(C)c1 (stereo not drawn), the Potency was inconclusive: 15.8 µM [cytotoxic, single point].
For CCNc1c(NC(=O)c2cc(OCC)c(OCC)c(OCC)c2)c(=O)oc2ccccc12, the Potency was “inactive”.
In the case of Cc1ccc(-c2onc(C)c2C)cc1S(=O)(=O)NC1CCCCC1, the Potency is reported as inconclusive: 15.8 µM [cytotoxic, single point].
In the case of Cc1ccc(Nc2nc3ccccc3c3nncn23)cc1C, the Potency is reported as inconclusive: 12.6 µM [cytotoxic, single point].
In the case of CCc1ccc(S(=O)(=O)c2nnn3c2nc(Nc2ccc(NC(C)=O)cc2)c2sccc23)cc1, the Potency is reported as inconclusive: 31.6 µM [cytotoxic, single point].
With Cc1c(CC(=O)NCc2ccc(F)cc2)c(=O)oc2cc(O)c(Cl)cc12 the Potency was inconclusive: 3.98 µM [cytotoxic, single point].
With O=C(CCCn1c(=O)c2cccn2c2ccccc21)NCCc1ccc(Cl)cc1 the Potency was inconclusive: 5.01 µM [cytotoxic, partial curve].
In the case of COc1ccc(-c2cc(C(F)(F)F)nc(NCCc3ccccc3)n2)cc1OC, the Potency is reported as “inactive”.
For CCc1ccccc1NC(=O)CN(C)C(=O)Cn1ncc(Cl)c(Cl)c1=O, the Potency was inconclusive: 10 µM [cytotoxic, single point].
In the case of Cc1ccc(NCc2cccn2-c2nnc(N3CCC(C(=O)NCCc4ccc(Cl)cc4)CC3)s2)cc1, the Potency is reported as “inactive”.
In the case of Cc1ccc(S(=O)(=O)Nc2cccc(-c3ccc(N4CCC(C)CC4)nn3)c2)s1, the Potency is reported as active: 15.8 µM.
